Data from PubChem BioAssay AID485294 (National Center for Advancing Translational Sciences (NCATS), 2010).
Hit rate of the full screen: of about 370,000 compounds, about 150 (0.041%) were called active. The shares of active, inactive and inconclusive entries below differ from those in the screen. The call rests on the fitted dose curve; in most records, active means well fitted inhibition curve with a large enough effect; inconclusive means small, poorly fitted or top-dose-only effect; inactive means flat fitted curve, though single readings scatter. No potency is given beside an inconclusive call; the fits are too rough.
Further: nearly all actives have a fitted effect of over 25% in size.
Potency means the concentration at half of the fitted maximal effect; tags describe the fitted curve by direction and shape.

The compounds below were run against Beta-lactamase (Escherichia coli (strain K12)) (UniProt P00811) (assay: qHTS Inhibitors of AmpC Beta-Lactamase (assay with detergent)). Conditions: AmpC hydrolysis of nitrocefin, absorbance 480 nm, 0.01% Triton; series mostly up to 114 µM.
Chain of UniProt P00811 (P00811 whole entry, looked up): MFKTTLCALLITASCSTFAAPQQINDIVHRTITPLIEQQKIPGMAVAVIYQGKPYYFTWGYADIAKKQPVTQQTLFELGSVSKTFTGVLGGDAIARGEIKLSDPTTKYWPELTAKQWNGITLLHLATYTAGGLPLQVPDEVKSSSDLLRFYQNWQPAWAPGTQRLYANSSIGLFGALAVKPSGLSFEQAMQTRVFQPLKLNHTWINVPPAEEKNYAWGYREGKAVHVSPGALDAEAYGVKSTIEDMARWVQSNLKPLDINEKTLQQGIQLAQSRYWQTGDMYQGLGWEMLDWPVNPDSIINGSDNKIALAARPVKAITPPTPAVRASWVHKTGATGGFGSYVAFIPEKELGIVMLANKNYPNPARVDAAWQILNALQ
How it was run: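 20 mM phosphate pH 7.0 + 0.01% (detergent screen) or 0.0001% Triton X-100; 5.3 nM AmpC reagent; cpd preinc 15 min RT; nitrocefin (800 uM stock) to start; A480 q20 s × 4 min; Activity was normalised to no-enzyme and no-compound control wells.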
For Nc1ccc2nc(-c3cc(Cl)c(N)c(Cl)c3)[nH]c2c1, the Potency was “inactive”.
With COCCCNC(=O)Cn1cc(/C=C(\C#N)C(=O)N2CCN(c3ccccc3)CC2)c2ccccc21 the Potency was inconclusive [inhibitor, single point].
With CCOC(=O)c1c(C)nc2sc(C(N)=O)c(N)c2c1-c1ccccc1 the Potency was “inactive”.
CCn1ncc(Br)c1C(=O)Nc1ncc(C)s1 was tested, and the Potency was “inactive”.
O=C(Nc1ccc(-c2nc3cc(NC(=O)c4ccccc4F)ccc3o2)cc1)c1ccccc1F was tested, and the Potency was “inactive”.
In the case of CCCCNC(=O)c1onc(CSc2ccc(C(C)C)cc2)c1C(=O)O, the Potency is reported as inconclusive [inhibitor, partial curve].
In the case of COc1ccc(C2CC2/C(=N/O)c2ccccn2)cc1 (stereo not given), the Potency is reported as inconclusive [inhibitor, partial curve].
With Cc1ccc(-c2nc3cc(N)ccc3o2)cc1Br the Potency was inconclusive [inhibitor, full curve].
BrCCOCCOc1ccc2ccccc2c1 was tested, and the Potency was inconclusive [inhibitor, full curve, poor fit].
For Cc1oc(=O)c(NC(=O)c2cccc(Cl)c2)cc1C(=O)c1ccccc1, the Potency was “inactive”.
For O=[N+]([O-])c1ccccc1/C=N/N1CCN(c2ccncc2S(=O)(=O)N2CCCCC2)CC1, the Potency was “inactive”.
For Fc1ccccc1OCCCCn1cncn1, the Potency was inconclusive [inhibitor, full curve, poor fit].
O=C(CNC(=O)c1cccc(F)c1)OCCOc1cccc(Cl)c1 was tested, and the Potency was inconclusive [inhibitor, single point].
For O=C1/C(=C\c2ccncc2)CCc2ccccc21, the Potency was “inactive”.
With CC(C)(C)C(=O)O/N=C1/C(=O)N(c2ccccc2)c2ccccc21 the Potency was inconclusive [inhibitor, full curve].
For CCCCC1CCC(C(=O)N(CC(C)C)c2c(N)n(Cc3ccccc3)c(=O)[nH]c2=O)CC1 (stereo not given), the Potency was “inactive”.
COc1ccc(CCNC(=O)CCCCC(=O)NCCc2ccc(OC)cc2)cc1 was tested, and the Potency was inconclusive [inhibitor, partial curve, poor fit].
In the case of O=C(Nc1nnc(CSCc2ccc(F)cc2)s1)c1cccc([N+](=O)[O-])c1, the Potency is reported as “inactive”.
In the case of CCOP(=O)(OCC)C(NC(=O)CN1C(=O)c2ccccc2S1(=O)=O)C(Cl)(Cl)Cl (stereo not given), the Potency is reported as inconclusive [inhibitor, partial curve].
For CC[n+]1c(/C=C/N(C)c2ccccc2)oc2ccccc21, the Potency was “inactive”.
With O=C(Nc1cccc(NC(=O)c2cccc([N+](=O)[O-])c2)n1)c1cccc([N+](=O)[O-])c1 the Potency was inconclusive [inhibitor, partial curve, poor fit].
For CCCc1nc(SCc2ccc(Cl)cc2Cl)n[nH]1, the Potency was inconclusive [inhibitor, full curve].
In the case of CCOC(=O)c1nc2nc(-c3cccs3)cc(C(F)(F)F)n2n1, the Potency is reported as inconclusive [inhibitor, full curve, poor fit].
With O=C(CNc1ccc(F)cc1)N/N=C/c1c(O)ccc2ccccc12 the Potency was inconclusive [inhibitor, partial curve].
COc1ccc(-c2csc(-c3nc(-c4ccc(Br)s4)cs3)n2)cc1F was tested, and the Potency was “inactive”.
For O=C(O)c1ccc(S(=O)(=O)Nc2ccc(F)c(Cl)c2)cc1, the Potency was inconclusive [inhibitor, full curve, poor fit].
In the case of CCOc1ccc(N(C(=O)c2cnsn2)C(C(=O)NC2CCCCC2)c2ccncc2)cc1 (stereo not given), the Potency is reported as inconclusive [inhibitor, single point].
In the case of COCCNC(=O)/C(C#N)=C/c1ccc(N2CCOCC2)o1, the Potency is reported as inconclusive [inhibitor, full curve, poor fit].
For COc1ccc(OC)c(NC(=O)CSc2nnc(CNc3ccc(C)cc3C)o2)c1, the Potency was inconclusive [inhibitor, full curve, poor fit].
With O=C(Cc1ccccc1Cl)NCCCn1ccnc1 the Potency was inconclusive [inhibitor, partial curve, poor fit].
With Cc1ccc(F)cc1NC(=O)Cn1c(=O)nc(-c2ccccc2F)c2cc(Cl)ccc21 the Potency was “inactive”.
For COCCNC(=S)N1CCOCC1, the Potency was inconclusive [inhibitor, partial curve].
For COc1ccc(/C=N/n2c(-c3n[nH]c4c3CCC4)n[nH]c2=S)cc1, the Potency was “inactive”.
CC(Oc1cccc(Cl)c1)C(=O)Nc1ccccc1N1CCCC1 (stereo not given) was tested, and the Potency was “inactive”.
In the case of O=C(COc1ccccc1)NCc1ccc2c(c1)OCO2, the Potency is reported as inconclusive [inhibitor, full curve, poor fit].
For Cc1sc2ncnc(N3CCC(C(=O)Nc4ccc(C#N)cc4)CC3)c2c1C, the Potency was inconclusive [inhibitor, full curve, poor fit].
COc1ccc(CNC(=O)Cn2c(=O)nc(-c3ccccc3F)c3cc(Cl)ccc32)cc1 was tested, and the Potency was “inactive”.
For CCN(CC)C(=O)CSc1nc2cc3c(cc2c(=O)n1CCCCCC(=O)NCc1ccc(OC)cc1)OCO3, the Potency was inconclusive [inhibitor, single point].
In the case of Cc1cc(NC(=O)C2CC2)ncc1NC(=O)C12CC3CC(CC(C3)C1)C2, the Potency is reported as inconclusive [inhibitor, full curve, poor fit].
In the case of CCN(CCCNC(=O)c1ccc(Sc2ccc(F)cc2)c(NC(C)=O)c1)c1ccccc1, the Potency is reported as “inactive”.
For COc1ccc(OC)c(S(=O)(=O)N2CCCC(C)C2)c1 (stereo not given), the Potency was inconclusive [inhibitor, full curve, poor fit].
For CCOc1ccc(CNc2ccc(N3CCN(Cc4ccccc4)CC3)cc2)cc1, the Potency was “inactive”.
For COc1ccc(C(=O)Nc2ccc(O)cc2C(=O)O)cc1, the Potency was inconclusive [inhibitor, full curve, poor fit].
With CC(=O)Nc1ccc(C(=O)CSc2nnc3scc(-c4ccccc4)n23)cc1 the Potency was inconclusive [inhibitor, partial curve, poor fit].
For O=C(Cn1cnc2ccccc21)Nc1cccc(S(=O)(=O)N2CCCC2)c1, the Potency was inconclusive [inhibitor, full curve, poor fit].
For Cc1c(Cl)cccc1NC(=O)C1CCCN(c2nnc(-n3c(C)ccc3C)s2)C1 (stereo not given), the Potency was “inactive”.
With O=c1[nH]c2cc3c(cc2cc1CN(Cc1nnnn1CC1CCCO1)C1CCCC1)OCO3 (stereo not given) the Potency was “inactive”.
In the case of COc1ccc(-c2c(C#N)c(N)nc3c2CCc2ccccc2-3)cc1OC, the Potency is reported as inconclusive [inhibitor, full curve, poor fit].
In the case of CCOc1ccc(-c2nnn(CC(=O)NCc3ccco3)n2)cc1OCC, the Potency is reported as inconclusive [inhibitor, partial curve, poor fit].
CSc1cccc(NC(=O)C2CCCN(C(=O)c3cnn(-c4ccc(F)cc4)c3-n3cccc3)C2)c1 (stereo not given) was tested, and the Potency was “inactive”.
In the case of Cc1ccc(S(=O)(=O)N2CCC(=O)N(CCOCc3cccc(C(F)(F)F)c3)CC2)cc1, the Potency is reported as inconclusive [inhibitor, partial curve, poor fit].
COc1ccc(Br)cc1CN1CCN(S(=O)(=O)Cc2ccccc2)CC1 was tested, and the Potency was “inactive”.
With O=C(O)c1cccc(Cn2c(Cl)c(/C=N/NC(=O)c3ccc(O)cc3)sc2=O)c1 the Potency was “inactive”.
With O=C(N1CCN(c2ccccn2)CC1)C(Cl)(Cl)Cl the Potency was inconclusive [inhibitor, full curve, poor fit].
With COC(=O)C1=C(C)NC(=S)NC1c1ccc(OCC(=O)N2CC(C)OC(C)C2)c(OC)c1 (stereo not given) the Potency was inconclusive [inhibitor, full curve, poor fit].
In the case of C/C(CC(=O)Nc1ccc(N(C)C)cc1)=N\NC(=O)c1ccccn1, the Potency is reported as “inactive”.
With Cc1ccc(Cn2c(CN3CC(C)OC(C)C3)nc3c2c(=O)[nH]c(=O)n3C)cc1 (stereo not given) the Potency was inconclusive [inhibitor, full curve, poor fit].
O=C(O)/C=C/c1ccc(-c2cccc(C(F)(F)F)c2)o1 was tested, and the Potency was inconclusive [inhibitor, full curve, poor fit].
With O=C1CCC(=O)N1c1ccccc1-c1ccccc1 the Potency was inconclusive [inhibitor, partial curve, poor fit].
In the case of O=C(NCc1cccs1)C1CCCN1S(=O)(=O)c1ccccc1F (stereo not given), the Potency is reported as inconclusive [inhibitor, full curve, poor fit].
For Cc1ccc2nc(-c3ccccn3)[nH]c2c1, the Potency was inconclusive [inhibitor, full curve, poor fit].
In the case of COc1cc(/C=N/NC(=O)c2cc3ccccc3cc2O)ccc1OCCN1CCCCC1, the Potency is reported as “inactive”.
For CSc1ccc(CN2CCCC(N3CCN(c4ccccc4)CC3)C2)cc1 (stereo not given), the Potency was inconclusive [inhibitor, partial curve, poor fit].
For COc1cc(NS(=O)(=O)c2ccc(NC(=S)NC(=O)CC(C)C)cc2)nc(OC)n1, the Potency was inconclusive [inhibitor, partial curve].
With O=C(NCc1ccco1)c1ccc(S(=O)(=O)N2CCCCCC2)cc1 the Potency was “inactive”.
For O=C(O)Cc1ccc(NS(=O)(=O)c2ccccc2Cl)cc1, the Potency was inconclusive [inhibitor, single point].
CCCNS(=O)(=O)c1ccc(CCC(=O)NCc2ccco2)cc1 was tested, and the Potency was “inactive”.
In the case of CCCCC[C@H]1CN(Cc2ccccc2)C(=O)[C@@H]1CC(=O)NCc1ccccc1, the Potency is reported as inconclusive [inhibitor, partial curve, poor fit].
With CCCNC(=O)c1ccccc1NC(=O)c1nsc2ccccc12 the Potency was “inactive”.
In the case of O=C(NC(=S)N1C[C@H]2C[C@H](C1)c1cccc(=O)n1C2)c1ccc(Cl)cc1, the Potency is reported as inconclusive [inhibitor, full curve, poor fit].
